Results reported in the supplement of paper PMC4967469.
By IC50 is meant the dose at which the fit gives 50% viability; where the fit passes the top or lowest dose, that dose stands as a limit. AUC, from the same fit, is the share of area under the viability curve across the 256-fold dose range: 1 means no effect, lower means more sensitive. For some assays here: A top dose marked as inferred comes from the curve model; the source does not state it. For some assays here: Where an entry number is given, a second screen of the drug exists; the two often differ.

Assays:
Assay in all cases: Viability of human cancer cell lines after 72 h of drug (GDSC screen)
[1] = compound: C[C@]1(c2nc3c(C(N)=O)cccc3[nH]2)CCCN1 [ABT-888]; conditions: top dose 5 µM; top dose inferred
Experimental: (§1)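 Human cancer cell lines in 384-well plates, medium with 10% serum, drug for 72 h over a 256-fold dose range (nine 2-fold or five 4-fold steps up to the top dose). Adherent lines were fixed and stained with the nucleic acid dye Syto60, suspension lines read with resazurin; signal relative to control wells, capped at 0 and 100%. One two-parameter sigmoid per drug and line, fitted in a mixed model over all curves with the slope shared within a line.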

[2] = compound: COc1cc(O)c2c(c1)/C=C/C[C@H](O)[C@H](O)C(=O)/C=C\C[C@H](C)OC2=O [(5Z)-7-Oxozeaenol]; conditions: top dose 10 µM; top dose inferred
Experimental: as §1

[3] = compound: O=c1cc(-c2cccc3c2Sc2ccccc2S3)oc(N2CCOCC2)c1 [KU-55933]; conditions: top dose 10 µM
Experimental: as §1

[4] = compound: Cc1cnc(-c2cnc(NCCNc3ccc(C#N)cn3)nc2-c2ccc(Cl)cc2Cl)[nH]1 [CHIR-99021]
Experimental: as §1

[5] = compound: Cc1ccc(F)c(NC(=O)Nc2ccc(-c3cccc4[nH]nc(N)c34)cc2)c1 [ABT-869]; conditions: top dose 1.024 µM; top dose inferred
Experimental: as §1

[6] = compound: COc1cc(N2CCC(O)CC2)ccc1Nc1cc(Nc2ccccc2S(=O)(=O)C(C)C)c2cc[nH]c2n1 [MPS-1-IN-1]; conditions: top dose 20 µM; top dose inferred
Experimental: as §1

[7] = compound: Cc1ccc(-c2c(C(=O)CCl)n(CCCO)c3ncnc(N)c23)cc1 [CMK]; conditions: top dose 4 µM; top dose inferred
Experimental: as §1

[8] = compound: C=CC(=O)Nc1cc(-n2c(=O)ccc3cnc4ccc(-c5cn[nH]c5)cc4c32)ccc1C [QL-X-138]; conditions: top dose 10.24 µM; top dose inferred
Experimental: as §1

[9] = compound: COc1cc2ncnc(-n3nc(-c4ccccn4)nc3N)c2cc1OC [CP466722]; conditions: top dose 16 µM; top dose inferred
Experimental: as §1

[10] = compound: COc1nc(C)cnc1NS(=O)(=O)c1cccnc1-c1ccc(-c2nnco2)cc1 [Zibotentan]; conditions: top dose 20 µM; top dose inferred
Experimental: as §1

[11] = compound: CCn1c(-c2nonc2N)nc2cnc(Oc3cccc(NC(=O)c4ccc(OCCN5CCOCC5)cc4)c3)cc21 [GSK269962A]; conditions: top dose inferred
Experimental: as §1

[12] = compound: C/C=C(/C)C(=O)O[C@H]1C(C)=C2[C@H]([C@@H]1OC(=O)CCCCCCC)[C@@](C)(OC(C)=O)C[C@H](OC(=O)CCC)[C@@]1(O)[C@H]2OC(=O)[C@@]1(C)O [Thapsigargin]; conditions: top dose 0.512 µM; top dose inferred
Experimental: as §1

[13] = top dose 2.56 µM, screen: GDSC drug entry 154
[14] = top dose 10 µM, screen: GDSC drug entry 1241, top dose inferred
[15] = top dose 2.5 µM, screen: GDSC drug entry 127
[16] = top dose 5 µM, screen: GDSC drug entry 1192

Cell Line	AUC [1]	IC50 [1] [µM]	AUC [2]	IC50 [2] [µM]	AUC [3]	IC50 [3] [µM]	AUC [4, 13]	IC50 [4, 13] [µM]	AUC [4, 14]	IC50 [4, 14] [µM]	AUC [5]	IC50 [5] [µM]	AUC [6]	IC50 [6] [µM]	AUC [7]	IC50 [7] [µM]	AUC [8]	IC50 [8] [µM]	AUC [9]	IC50 [9] [µM]	AUC [10]	IC50 [10] [µM]	AUC [11, 15]	IC50 [11, 15] [µM]	AUC [11, 16]	IC50 [11, 16] [µM]	AUC [12]	IC50 [12] [µM]
8-MG-BA (glioma, adherent)	0.978	> 5	0.664	1.73	0.954	> 10	0.972	> 2.56	0.928	> 10	0.974	> 1.02	0.906	> 20	0.873	3.45	0.567	0.965	0.763	5.41	0.987	> 20	0.955	> 2.5	0.719	1.25	0.181	0.00383
697 (lymphoblastic leukaemia, suspension)	0.988	> 5	0.578	0.977	0.883	7.05	0.982	> 2.56	0.861	5.88	0.97	> 1.02	0.82	8.66	0.525	0.288	0.341	0.257	0.35	0.421	0.99	> 20	0.667	0.408	0.511	0.333	0.063	< 0.002
ALL-SIL (T-cell leukaemia, suspension)	0.989	> 5	0.629	1.34	0.989	> 10	0.958	> 2.56	0.869	7.15	0.944	> 1.02	0.756	5.99	0.827	2	0.493	0.614	0.453	0.76	0.932	> 20	0.776	0.861	0.81	2.2	0.087	< 0.002
ATN-1 (T-cell lymphoblastic leukaemia, suspension)	0.949	> 5	0.748	3.03	0.514	0.679	0.98	> 2.56	0.952	> 10	0.975	> 1.02	0.795	8.6	0.962	> 4	0.548	0.855	0.579	1.62	0.986	> 20	0.955	> 2.5	0.905	> 5	0.527	0.0376
BB30-HNC (head and neck, adherent)	0.946	> 5			0.908	> 10	0.978	> 2.56			0.98	> 1.02	0.808	10.1	0.783	1.64	0.765	3.68	0.808	8.07	0.985	> 20	0.939	> 2.5			0.24	0.00578
BL-41 (Burkitt lymphoma, suspension)	0.994	> 5	0.622	1.24	0.934	> 10	0.89	1.73	0.818	4.01	0.994	> 1.02	0.796	6.96	0.785	1.3	0.228	0.134	0.415	0.621	0.994	> 20	0.932	> 2.5	0.844	2.4	0.075	0.00213
C2BBe1 (large intestine, adherent)	0.979	> 5	0.781	4.73	0.962	> 10	0.984	> 2.56	0.948	> 10	0.984	> 1.02	0.881	> 20	0.847	3.56	0.744	3.57	0.906	> 16	0.952	> 20	0.986	> 2.5	0.906	> 5	0.3	0.00803
CCRF-CEM (lymphoblastic leukaemia, suspension)	0.976	> 5	0.741	2.65	0.883	7.77	0.959	> 2.56	0.965	> 10	0.991	> 1.02	0.825	9.52	0.782	1.39	0.409	0.376	0.639	2.26	0.986	> 20	0.923	> 2.5	0.766	1.56	0.504	0.0328
CTB-1 (B-cell lymphoma, suspension)	0.979	> 5	0.759	4.72	0.928	> 10	0.979	> 2.56	0.976	> 10	0.979	> 1.02	0.929	> 20	0.743	1.64	0.343	0.199	0.891	> 16	0.979	> 20	0.967	> 2.5	0.906	> 5	0.462	0.0243
Calu-6 (lung adenocarcinoma, adherent)	0.984	> 5	0.597	1.2	0.984	> 10	0.977	> 2.56	0.958	> 10	0.984	> 1.02	0.915	> 20	0.981	> 4	0.781	4.89	0.788	8.13	0.984	> 20	0.97	> 2.5	0.904	> 5	0.284	0.00707
D-283MED (medulloblastoma, adherent)	0.975	> 5	0.902	> 10	0.901	> 10	0.991	> 2.56	0.99	> 10	0.991	> 1.02	0.991	> 20	0.984	> 4	0.991	> 10.2	0.982	> 16	0.991	> 20	0.982	> 2.5	0.964	> 5	0.217	0.00525
DU-4475 (breast, suspension)	0.992	> 5	0.23	0.125	0.981	> 10	0.992	> 2.56	0.969	> 10	0.99	> 1.02	0.919	> 20	0.98	> 4			0.802	6.24	0.992	> 20	0.988	> 2.5	0.944	> 5	0.221	
HOP-62 (lung adenocarcinoma, adherent)	0.972	> 5	0.678	1.96	0.977	> 10					0.973	> 1.02	0.872	18.9	0.891	> 4	0.66	1.78	0.823	9.39	0.983	> 20	0.958	> 2.5	0.897	> 5	0.08	< 0.002
MOLM-13 (acute myeloid leukaemia, suspension)	0.97	> 5	0.081	< 0.0391	0.963	> 10	0.981	> 2.56	0.983	> 10			0.776	7.48	0.805	1.87			0.393	0.519	0.969	> 20	0.791	1.05	0.755	1.6	0.375	0.0148
MSTO-211H (mesothelioma, adherent)	0.971	> 5			0.987	> 10	0.99	> 2.56			0.982	> 1.02	0.991	> 20	0.961	> 4	0.967	> 10.2	0.983	> 16	0.991	> 20	0.94	> 2.5	0.493	0.299	0.608	0.0614
MV-4-11 (leukaemia, suspension)	0.954	> 5	0.022	< 0.0391	0.857	5.93	0.957	> 2.56	0.853	5.76			0.882	14.7	0.803	1.58	0.259	0.153	0.358	0.438	0.99	> 20	0.488	0.146	0.368	0.146	0.312	0.0107
NALM-6 (B-cell leukaemia, suspension)	0.983	> 5	0.722	2.34	0.949	> 10	0.896	2.24	0.947	> 10	0.987	> 1.02	0.746	5.47	0.871	2.76			0.502	1.01	0.969	> 20	0.825	1.18	0.951	> 5	0.067	< 0.002
NCI-H1975 (lung adenocarcinoma, adherent)	0.983	> 5	0.599	1.22	0.959	> 10	0.895	> 2.56	0.938	> 10	0.982	> 1.02	0.884	> 20	0.843	3.46	0.669	2.03	0.82	11			0.776	1.15	0.597	0.602	0.215	0.00402
NKM-1 (acute myeloid leukaemia, suspension)	0.921	> 5	0.457	0.475	0.907	> 10	0.902	> 2.56	0.913	> 10	0.192	0.00744	0.776	8.19	0.978	> 4			0.623	2.21	0.981	> 20	0.972	> 2.5	0.88	> 5	0.352	0.0123
